The source of these data is PubChem BioAssay AID602156 (GNF / Scripps Winzeler lab, 2011).

The other results are listed elsewhere or left out. These are further read-outs of the screen, such as a control signal, another cell line or another target. No call is given for them.

A short description of the assay: exo-erythrocytic parasite development inhibition – imaging, Malaria Box, P. yoelii, HepG2-A16-CD81EGFP, dose response (AID 602156).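 Also: infected cells exposed to compound for 48 hours before fixation.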 The note with it: P. yoelii liver stage in HepG2-A16-CD81EGFP, measured here: liver parasite size at 10 uM.
Take `Cn1ncnc2c(=O)n(C)c(=O)nc1-2`: the parasite size was determined as 12.5 um.
With `CCc1cc2c(cc1-c1csc(N=C(N)N)n1)C(C)(C)CCC2(C)C`, the parasite size stood at 92.3 um.
For `CCCCCCCc1cc(O)c2c3c(c(=O)oc2c1)CCC(C)C3` (stereo unspecified) the value was 31.5 um.
The figure for `C[C@@H]1C[C@@H]([C@H](O)CC2CC(=O)NC(=O)C2)C(=O)[C@@H](C)C1` is 14.6 um; for `CCCN[P+](CC(C)C)(NCCC)NCCC` it is 27.2 um.
The figure for `CCOC(=O)CN(N=O)C1=C(N2CC2)C(=O)c2ccccc2C1=O` is 35.8 um.
